# According to PubChem BioAssay AID686979 (National Center for Advancing Translational Sciences (NCATS), 2013):
# Out of some 420,000 compounds screened, about 50,000 (12%) were called active. Inconclusive means that the source gave no clear call. Such entries were picked first, then a sample of the others. The call rests on the fitted dose curve; in most records, active means well fitted inhibition curve with a large enough effect; inconclusive means small, poorly fitted or top-dose-only effect; inactive means flat fitted curve, though single readings scatter. No potency is given beside an inconclusive call; the fits are too rough.
# Assay: qHTS for Inhibitors of human tyrosyl-DNA phosphodiesterase 1 (TDP1): qHTS in cells in presence of CPT; further: nearly all actives have a fitted effect of over 55% in size
# Details: chicken DT40 Tdp1-/-;hTDP1 cells + 20 nM CPT, ATP luminescence, 48 h; activity change, negative = growth inhibition: at 46.2 µM (top of the series) unless noted
# Summary of the method: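 Chicken DT40 Tdp1-/- cells stably complemented with human TDP1 were seeded at 400 cells/well in medium containing 20 nM camptothecin, exposed to pin-transferred compounds, and grown at 37 °C for at least 48 hr. Viability was read as ATP luminescence.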
# On the % scale 0 is the no-effect control and ±100 the full control effect; potency means the concentration at half of the fitted maximal effect; tags describe the fitted curve by direction and shape.
Compound,Potency,"activity change, negative = growth inhibition"
CCCC1(c2ccccc2)NC(=O)N(CC(=O)Nc2sc(-c3ccccc3)cc2C(=O)OCC)C1=O (stereo not given),"inconclusive [inhibitor, single point]",–
Oc1ccccc1-c1nc(NCCN2CCOCC2)c2ccccc2n1,"inconclusive [inhibitor, single point]",–
O=C(COc1ccc(S(=O)(=O)N2CCOCC2)cc1Cl)NCc1ccc2c(c1)OCO2,inactive,–
Cc1ccc(C(CNS(=O)(=O)c2ccc(Br)cc2)N2CCN(C)CC2)cc1 (stereo not given),"inconclusive [inhibitor, single point]",–
O=C(CCNC(=O)c1ccc([N+](=O)[O-])cc1)N/N=C/c1ccc(F)cc1,inactive,–
CCOC(=O)c1ccc(N2C(=O)c3n[nH]c(-c4ccco4)c3C2c2ccc(C)cc2)cc1 (stereo not given),active: 25.9 µM,–
O=C(C(=O)N1CCCC1CO)N1CCCC1CO (stereo not given),inactive,–
CC(C)C(NC(=O)c1ccc(Cl)cc1)C(=O)NCC1CCCO1 (stereo not given),inactive,–
CCc1cccc(CC)c1N1C(=O)CC(Sc2ccccc2N)C1=O (stereo not given),"inconclusive [inhibitor, single point]",–
O=C(Nc1ccc(-n2nncc2-c2ccco2)cc1)c1cccc(F)c1,"inconclusive [inhibitor, partial curve]",–
COc1cc(NC(=O)c2ccc(-c3csc(C)n3)cc2)c(OC)cc1Cl,inactive,–
CC(=O)NC(c1ccc(F)c(F)c1)c1nc(-c2ccccc2C)cs1 (stereo not given),"inconclusive [inhibitor, partial curve, poor fit]",–
CCOc1ccc(CCNC(=O)CN2CCN(Cc3ccc(Cl)cc3)C2=O)cc1OCC,inactive,–
CSc1scc2c1-c1nc(SCC(=O)C(C)(C)C)ncc1CC2,"inconclusive [inhibitor, single point]",–
Cc1ccc(-c2nnn(CC(=O)N(Cc3cccs3)C(C(=O)NC3CCCCC3)c3ccco3)n2)o1 (stereo not given),active: 25.9 µM,–
O=C1C2ON(c3ccc(Br)cc3)C(c3cccnc3)C2C(=O)N1C1CCCCC1 (stereo not given),"inconclusive [inhibitor, single point]",–
CCCCSc1nc2sc3c(c2c(=O)n1-c1ccc(OC)cc1)CCN(C)C3,"inconclusive [inhibitor, single point]",–
Cc1cc(C(=O)NC2=NCCS2)c2ccccc2n1,inactive,–
Cc1cccc(NC(=O)CSc2ccc(-c3ccccn3)nn2)c1,"inconclusive [inhibitor, single point]",–
Cc1cccc(C)c1Nc1nn2c(=O)c3cc4c(cc3nc2s1)OCO4,inactive,–
COc1ccc(CCNC(=O)c2ccc(NC(=O)CC3SC(N4CCCC4)=NC3=O)cc2)cc1OC (stereo not given),inactive,–
O=C(NCc1ccc(Cl)cc1)C1CCN(S(=O)(=O)c2cc([N+](=O)[O-])ccc2Cl)CC1,active: 23.1 µM,–
COc1ccc(N(CC(=O)Nc2cccc(C(C)=O)c2)S(C)(=O)=O)cc1OC,inactive,–
CCOC(=O)C1CCN(C(=O)c2ccc(N(C)S(=O)(=O)c3ccc(OC)cc3)cc2)CC1,"inconclusive [inhibitor, single point]",–

Compound,Potency,"activity change, negative = growth inhibition"
CCN(c1ccccc1)S(=O)(=O)c1ccc(OC)c(NC(=O)c2ccco2)c1,"inconclusive [inhibitor, single point]",–
COc1ccc(C2CC(=O)Oc3c(C(CCN4CCOCC4)c4cc(OC)c(OC)c(OC)c4)c(OC)cc(OC)c32)cc1 (stereo not given),"inconclusive [inhibitor, partial curve]",–
Brc1ccc2c(c1)OCCOCCOc1cc(Br)ccc1OCCOCCOCCO2,active: 5.17 µM,–
COc1cccc(NC(=O)C(=O)NCC(c2ccc3c(c2)OCO3)N2CCN(C)CC2)c1 (stereo not given),inactive,–
O=C(N/N=C/c1ccc(-c2ccc([N+](=O)[O-])cc2)o1)[C@H]1C[C@@H]1c1ccccc1,"inconclusive [inhibitor, single point]",–
CCOC(=O)CCNC(=O)N1CCCC(C(=O)c2cc(C)c(OC)c(C)c2)C1 (stereo not given),"inconclusive [inhibitor, partial curve, poor fit]",–
COc1cccc(C(=O)Nc2cccc(OCc3cc(=O)n4c5c(sc4n3)CCCC5)c2)c1,inactive,–
COC(=O)c1cc(OC)c(OC)cc1NC(=O)c1c(-c2ccccc2Cl)noc1C,active: 18.4 µM,–
COc1cccc(-c2nc(S(=O)(=O)c3ccc(Cl)cc3)c(NCc3ccccc3)o2)c1,"inconclusive [inhibitor, single point]",–
Cn1c(=O)c2c(nc(SCCNS(=O)(=O)c3ccccc3)n2C)n(C)c1=O,inactive,–
CCC1CCCCN1C(=O)COc1ccc2c(c1)OCO2 (stereo not given),inactive,–
CCc1ccc(-c2cn3c(n2)sc2cc(C(=O)NC4CCCCC4)ccc23)cc1,active: 3.66 µM,–
CC1CCN(C(=O)CN(c2ccc(Oc3ccccc3)cc2)S(C)(=O)=O)CC1,"inconclusive [inhibitor, single point]",–
CC(=O)Nc1cc(-c2ccccc2CN(C)C)cn2c(-c3ccc(F)c(Cl)c3)cnc12,"inconclusive [inhibitor, single point]",–
COc1ccc(NC(=O)CCCSc2nc(-c3ccco3)cc(C(F)(F)F)n2)cc1OC,"inconclusive [inhibitor, single point]",–
Cc1ccc(C)c(N2CCN(c3ncnc4c3cnn4-c3ccccc3)CC2)c1,"inconclusive [inhibitor, single point]",–
CC(=O)Nc1ccc(-c2ccnc3c2CC(C(=O)NCc2ccccc2)O3)cc1 (stereo not given),active: 0.0231 µM,–
CCCCN(CC)CCCNC(=O)c1cc2c(=O)[nH]c3ccccc3c2n1C,"inconclusive [inhibitor, single point]",–
CCOc1ccc(NC(=O)CSc2nc3ccccc3c(=O)n2CCCC(=O)N2CCCC2)cc1,"inconclusive [inhibitor, single point]",–
COCCNc1oc(-c2ccccc2)nc1S(=O)(=O)c1ccc(Br)cc1,"inconclusive [inhibitor, single point]",–
COc1ccccc1/C=C/C=N/NC(=O)c1cccs1,active: 20.6 µM,–
Nc1ncnc2c1ccn2[C@H]1CN(Cc2ccc3c(c2)OCO3)C[C@@H](COC(=O)c2ccccc2)O1,"inconclusive [inhibitor, single point]",–
Cc1cccc(-n2cc(-c3ccccc3)c3c(N4CCOCC4)ncnc32)c1,"inconclusive [inhibitor, partial curve]",–
COc1cc(C(=S)N2CCOCC2)ccc1OS(=O)(=O)c1ccc(Cl)cc1,"inconclusive [inhibitor, single point]",–

Compound,Potency,"activity change, negative = growth inhibition"
CSCCNC(=O)c1ccc(OC2CCN(CCc3ccccc3)CC2)cc1,"inconclusive [inhibitor, single point]",–
Cc1ccc(CNC(=O)CCC2CCCN(Cc3ccc4cccc(F)c4n3)C2)o1 (stereo not given),inactive,–
O=c1[nH]nnc2sc3c(c12)CCCC3,"inconclusive [inhibitor, single point]",–
Cc1ccc(C)c(CN2CCC(CNC(=O)Nc3ccc(Cl)cc3)CC2)c1,active: 20.6 µM,–
Cn1nc(C(F)(F)F)c(/C=N/OC(=O)c2ccccc2)c1Cl,inactive,–
c1ccc2sc(C3CCN(Cc4nnnn4Cc4ccc5c(c4)OCO5)CC3)nc2c1,"inconclusive [inhibitor, single point]",–
COc1ccc(NC(=O)CCOc2ccccc2)c(OC)c1,"inconclusive [inhibitor, partial curve]",–
COc1cc(C(=O)Nc2ccc3c(c2)ncn3C(C)(C)C)cc(OC)c1OC,"inconclusive [inhibitor, single point]",–
C=CCN1C(=O)C(O)(CC(=O)c2ccc(Cl)cc2)c2ccccc21 (stereo not given),active: 18.4 µM,–
Cc1ccc(S(=O)(=O)NC2(C(=O)O)CCCCC2)cc1,inactive,–
COc1ccc(S(=O)(=O)Nc2ccccc2OC)cc1NC(=O)Cc1cccs1,"inconclusive [inhibitor, single point]",–
O=C(Nc1cccc(OC(F)(F)F)c1)C1Cc2c(-c3ccco3)ccnc2O1 (stereo not given),"inconclusive [inhibitor, single point]",–
COc1ccc(O)c(/C=c2/sc3nc4cc(C)c(C)cc4n3c2=O)c1,active: 16.4 µM,–
Cc1cccc(NC(=O)CN(CC2CCCO2)C(=O)c2oc3ccc(F)cc3c2C)c1C (stereo not given),"inconclusive [inhibitor, single point]",–
O=C(Nc1nc(=O)c2ccccc2s1)c1ccc(F)cc1,inactive,–
Cc1ccc2[nH]nc(C(=O)N3CCCC(C(=O)c4ccc(Cl)cc4)C3)c2c1 (stereo not given),"inconclusive [inhibitor, partial curve]",–
COc1cccc(NC(=O)C2(C)CCN2Cc2ccc(OC(C)C)cc2)c1 (stereo not given),"inconclusive [inhibitor, single point]",–
CCOC(=O)/C(=N/O)C1=NC(C)(C)Cc2cc(C)c(C)cc21,inactive,–
O=C(Nc1ccc(S(=O)(=O)NCCc2ccccc2)cc1)c1ccc(Br)o1,–,inconclusive: -33.8% [inhibitor]
c1ccc(C(c2ccccc2)c2nc(-c3cccnc3)no2)cc1,"inconclusive [inhibitor, single point]",–
Cc1cc(N2CCCN(C)CC2)nc2cc(Cl)ccc12,"inconclusive [inhibitor, single point]",–
O=C(Nc1ccc(NC(=O)c2sc3ccccc3c2Cl)cc1Cl)c1ccco1,"inconclusive [inhibitor, full curve]",–
